This passage reports GI50 and TGI results from PubChem BioAssay (NCI).

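Exposure lasted 48 hours, with cells grown in 96-well plates and compounds tested at five concentrations. The concentration for 50% growth inhibition is given as GI50. TGI: concentration producing complete growth inhibition.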 Bounds are passed on as bounds.

The subject of the assay is NCI-H322M lung. In words: NCI tumour cell line growth inhibition, 48 h.
On to `COc1ccc2cc([C@H](C)C(=O)NCc3ccccc3)ccc2c1`, for which the GI50 was 5.42 µM and the TGI is over 100 µM.
In the same order, the values of `CCCCCc1ccc(S(=O)(=O)Nc2cc(-c3csc(N(C)C(C)=O)n3)ccc2N2CCN(C)CC2)cc1` are 9.17 µM and over 35.5 µM.
In the same order, the values of `CC(C)(C)OC(=O)N1C/C(=C\c2ccc(F)cc2)C(=O)/C(=C/c2ccc(F)cc2)C1` are 12.2 µM and 27.8 µM.
